{"source": "paper PMC4336329", "about": "(PLoS ONE, 2015)", "note": "Screen size: about 310,000 compounds; about 14,000 (4.5%) showed an effect of 50% or more. Effects have a minus sign here. The list shows a part of the results.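 Note: peak tail current of the secondary pulse compared with the same well before compound.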", "data": [{"biological_target": "human ether-à-go-go-related gene (hERG) potassium channel (human, UniProt Q12809)", "sequence (Q12809 whole entry, looked up)": "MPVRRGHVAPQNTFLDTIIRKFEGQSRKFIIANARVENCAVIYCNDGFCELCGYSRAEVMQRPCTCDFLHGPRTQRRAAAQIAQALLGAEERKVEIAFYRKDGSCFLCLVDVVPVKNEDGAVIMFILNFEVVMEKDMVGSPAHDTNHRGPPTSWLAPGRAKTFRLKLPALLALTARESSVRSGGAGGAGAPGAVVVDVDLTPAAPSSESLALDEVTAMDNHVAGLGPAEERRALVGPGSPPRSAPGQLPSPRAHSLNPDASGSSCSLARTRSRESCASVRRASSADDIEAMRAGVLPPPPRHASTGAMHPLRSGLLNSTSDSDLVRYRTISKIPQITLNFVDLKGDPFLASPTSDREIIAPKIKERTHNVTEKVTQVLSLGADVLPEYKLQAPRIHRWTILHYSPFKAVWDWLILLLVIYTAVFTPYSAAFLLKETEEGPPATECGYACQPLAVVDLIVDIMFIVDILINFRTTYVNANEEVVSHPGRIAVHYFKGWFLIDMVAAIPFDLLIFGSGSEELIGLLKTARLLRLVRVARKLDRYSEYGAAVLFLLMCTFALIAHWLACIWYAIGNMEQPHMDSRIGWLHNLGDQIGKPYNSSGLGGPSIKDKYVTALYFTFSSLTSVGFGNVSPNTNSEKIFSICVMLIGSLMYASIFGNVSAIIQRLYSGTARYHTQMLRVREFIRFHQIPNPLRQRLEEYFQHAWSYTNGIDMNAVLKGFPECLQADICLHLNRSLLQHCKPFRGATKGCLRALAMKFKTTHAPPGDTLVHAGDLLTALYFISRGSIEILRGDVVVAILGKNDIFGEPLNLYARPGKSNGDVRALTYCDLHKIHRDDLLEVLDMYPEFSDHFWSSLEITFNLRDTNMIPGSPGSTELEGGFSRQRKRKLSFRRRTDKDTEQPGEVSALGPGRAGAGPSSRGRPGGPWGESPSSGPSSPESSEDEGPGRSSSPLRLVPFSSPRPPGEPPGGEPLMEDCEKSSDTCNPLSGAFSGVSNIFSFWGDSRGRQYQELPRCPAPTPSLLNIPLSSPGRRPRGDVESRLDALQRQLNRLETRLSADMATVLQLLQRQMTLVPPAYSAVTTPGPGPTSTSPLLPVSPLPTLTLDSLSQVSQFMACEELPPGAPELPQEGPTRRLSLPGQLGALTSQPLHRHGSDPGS", "experiment": "primary screen, population patch clamp on CHO cells stably expressing hERG", "units": {"hERG current change (%, negative = inhibition) at 10uM": "%"}, "values": [{"compound": "CCc1ccc(/C=C2/C(=O)NC(=O)N2C(C)=O)cc1", "hERG current change (%, negative = inhibition) at 10uM": 7.88}, {"compound": "CCOc1ccc(NC(=O)CC2C(=O)N(C)C(=S)N2Cc2ccc3c(c2)OCO3)cc1", "note": "(centres unmarked)", "hERG current change (%, negative = inhibition) at 10uM": -8.33}, {"compound": "CSc1nc(Cc2ccccc2)cc(=O)[nH]1", "hERG current change (%, negative = inhibition) at 10uM": 16.4}, {"compound": "Cc1cc(C(=O)CN2C(=O)C(=O)N(Cc3ccccc3)C2=O)c(C)n1-c1ccc2c(c1)OCCO2", "hERG current change (%, negative = inhibition) at 10uM": 14}, {"compound": "COCCN(C(=O)Cc1cccs1)C(C(=O)NCc1ccc(OC)cc1)c1ccccc1", "note": "(centres unmarked)", "hERG current change (%, negative = inhibition) at 10uM": -29.7}, {"compound": "COc1ccc(/C(C)=N/NC(=O)CNC(=O)Cc2ccccc2)c(OC)c1", "hERG current change (%, negative = inhibition) at 10uM": -4.12}, {"compound": "O=C(CCS(=O)(=O)c1ccccc1)Nc1ccc(-c2nc3ccccc3s2)c(O)c1", "hERG current change (%, negative = inhibition) at 10uM": 10.4}, {"compound": "Cn1c(=O)c2c(nc(CN3CCN(C(=O)c4ccco4)CC3)n2CC(=O)C(C)(C)C)n(C)c1=O", "hERG current change (%, negative = inhibition) at 10uM": 3.17}, {"compound": "CCC(NC(=O)NCc1ccc2c(c1)OCO2)(C(F)(F)F)C(F)(F)F", "hERG current change (%, negative = inhibition) at 10uM": -2.07}, {"compound": "CC1CN(C(=O)c2cccs2)CC(C)O1", "note": "(centres unmarked)", "hERG current change (%, negative = inhibition) at 10uM": 9.47}, {"compound": "Cc1ccc(OCc2nc(-c3ccccn3)no2)c(Br)c1", "hERG current change (%, negative = inhibition) at 10uM": -22.5}, {"compound": "CC1Cc2nc(SCC(=O)NCc3ccco3)n(-c3ccccc3)c(=O)c2S1", "note": "(centres unmarked)", "hERG current change (%, negative = inhibition) at 10uM": -33.5}, {"compound": "Cc1csc(NC(=O)COCC(=O)O)c1-c1nc2ccccc2s1", "hERG current change (%, negative = inhibition) at 10uM": -1.83}, {"compound": "Cc1sc(C(=O)NCc2cccnc2)c2nc(C)n(CC(=O)NCc3cccnc3)c(=O)c12", "hERG current change (%, negative = inhibition) at 10uM": 0.617}, {"compound": "CC(C)c1ccc(NC(=O)NCc2ccc3c(c2)OCO3)cc1", "hERG current change (%, negative = inhibition) at 10uM": 13.4}, {"compound": "Cc1cc(OCCCn2ccnc2)cc(C)c1Cl", "hERG current change (%, negative = inhibition) at 10uM": -15.7}, {"compound": "Cc1ccc(S(=O)(=O)NNc2ccccc2)cc1", "hERG current change (%, negative = inhibition) at 10uM": 14.4}, {"compound": "CC(=O)c1ccc2c(c1)C1C(Cl)C(Sc3ccccc3[N+](=O)[O-])CC1C(c1ccccc1)N2", "note": "(centres unmarked)", "hERG current change (%, negative = inhibition) at 10uM": 15.1}, {"compound": "CCN1CCCC1CNC(=O)c1cc2cc(OC)c(OC)cc2[nH]1", "note": "(centres unmarked)", "hERG current change (%, negative = inhibition) at 10uM": 16.6}, {"compound": "CCN(Cc1cccc(F)c1)C(=O)c1ccc2ccccc2n1", "hERG current change (%, negative = inhibition) at 10uM": -6.51}, {"compound": "COc1ccc(/C=C/C(=O)OCC(=O)NC2CCCCC2C)c(OC)c1", "note": "(centres unmarked)", "hERG current change (%, negative = inhibition) at 10uM": -9.38}, {"compound": "COc1cccc(/C=N/NC(=O)CCCC(=O)Nc2ccc(Br)cc2)c1", "hERG current change (%, negative = inhibition) at 10uM": 5.9}, {"compound": "COc1ccc(N(C(=O)c2ccc(S(=O)(=O)N3CCOCC3)cc2)C2C=CS(=O)(=O)C2)cc1", "note": "(centres unmarked)", "hERG current change (%, negative = inhibition) at 10uM": -29.5}, {"compound": "CCn1c2ccccc2c2n[nH]c(=S)nc21", "hERG current change (%, negative = inhibition) at 10uM": 12.4}, {"compound": "CCc1nnc(NC(=O)c2cccc(S(=O)(=O)N3CCCC3)c2)s1", "hERG current change (%, negative = inhibition) at 10uM": 11}, {"compound": "CC(C)CNC(=S)N1CCC(C(=O)c2ccc3c(c2)OCCO3)CC1", "hERG current change (%, negative = inhibition) at 10uM": -14.7}, {"compound": "NC(=O)N/N=C1\\c2ccccc2-c2c(C(N)=O)cccc21", "hERG current change (%, negative = inhibition) at 10uM": 9.97}, {"compound": "COc1ccc(NC(=O)c2sc(SCc3ccccc3)nc2N)cc1", "hERG current change (%, negative = inhibition) at 10uM": 11.5}, {"compound": "CC(=O)N1CCN(c2ccccc2NC(=O)c2ccc(Br)o2)CC1", "hERG current change (%, negative = inhibition) at 10uM": -54.4}, {"compound": "CCN(CC)CCN(C(=O)c1ccc2c(c1)OCCO2)c1nc2cc(C)cc(C)c2s1.Cl", "hERG current change (%, negative = inhibition) at 10uM": -69.9}, {"compound": "COc1ccccc1NS(=O)(=O)c1cccc(C(=O)NCc2ccccn2)c1", "hERG current change (%, negative = inhibition) at 10uM": 13.2}, {"compound": "CC(=O)N1CCN(S(=O)(=O)c2ccc(C)c([N+](=O)[O-])c2)C1C(C)C", "note": "(centres unmarked)", "hERG current change (%, negative = inhibition) at 10uM": 9.22}, {"compound": "O=C(C1CCN(S(=O)(=O)c2ccccc2)CC1)N1CCN(c2ccccc2)CC1", "hERG current change (%, negative = inhibition) at 10uM": 35.7}, {"compound": "CC1(C)CC(=O)C/C(=N\\NC(=O)Cc2ccccc2)C1", "hERG current change (%, negative = inhibition) at 10uM": 17.9}, {"compound": "CCCCN(C)C(=O)CSc1nc(NCc2ccc(OC)cc2)c2ccccc2n1", "hERG current change (%, negative = inhibition) at 10uM": -71}, {"compound": "Cc1ccccc1-c1nnc(SCC(=O)Nc2cccc(C)c2C)o1", "hERG current change (%, negative = inhibition) at 10uM": -8.46}, {"compound": "C=CCn1c(N2C(=O)CC(Cc3ccccc3)C2=O)nc2ccccc21", "note": "(centres unmarked)", "hERG current change (%, negative = inhibition) at 10uM": -29.1}, {"compound": "CC(=O)Nc1ccc(NC(=O)CN(C)S(=O)(=O)c2ccc3c(c2)CCC(=O)N3)cc1", "hERG current change (%, negative = inhibition) at 10uM": 3.74}, {"compound": "CCOc1ccccc1C(=O)N[C@H](C(=O)Nc1cc(S(=O)(=O)N(C)C)ccc1OC)C(C)C", "hERG current change (%, negative = inhibition) at 10uM": -6.79}, {"compound": "COc1ccc(-c2nnc(-c3ccc(Br)o3)o2)cc1OC", "hERG current change (%, negative = inhibition) at 10uM": -12.3}, {"compound": "CC1CCCCN1C(=O)CSc1ccc(-c2ccc(F)cc2)nn1", "note": "(centres unmarked)", "hERG current change (%, negative = inhibition) at 10uM": -20}, {"compound": "COc1ccc(-c2noc(C)c2-c2ccc3ccccc3n2)c(O)c1", "hERG current change (%, negative = inhibition) at 10uM": 2.79}, {"compound": "CCOC(=O)c1ccc(NC(=O)CCc2ccc(C)o2)cc1", "hERG current change (%, negative = inhibition) at 10uM": 5.09}, {"compound": "COc1ccc(OC)c(NC(=O)COC(=O)COc2c(Cl)cc(Cl)c3ccc(C)nc23)c1", "hERG current change (%, negative = inhibition) at 10uM": 11.9}, {"compound": "Cc1[nH]c2ccccc2c1C(=O)COC(=O)Cn1c(C)nc2ccccc21", "hERG current change (%, negative = inhibition) at 10uM": 4.61}, {"compound": "COC(=O)N/N=C\\c1c(C)[nH]n(-c2ccccc2)c1=O", "hERG current change (%, negative = inhibition) at 10uM": 19.4}, {"compound": "COC(=O)C1=C(C)Nc2nnnn2C1c1ccccc1Cl", "note": "(centres unmarked)", "hERG current change (%, negative = inhibition) at 10uM": -2.51}, {"compound": "O=C(Nc1ccc(N2CCOCC2)cc1)c1cc2c(s1)CCCC2", "hERG current change (%, negative = inhibition) at 10uM": 3.49}, {"compound": "CNc1c(NC(=O)COc2ccc(Cl)cc2)c(=O)oc2ccccc12", "hERG current change (%, negative = inhibition) at 10uM": -37.2}, {"compound": "CC(=O)N1CCC(N(CCN2CCOCC2)C(=S)Nc2cc(C)ccc2C)CC1", "hERG current change (%, negative = inhibition) at 10uM": 10.9}, {"compound": "COc1ccc2cc(C(=O)C3CCCN(C(=O)CCc4cnn(C)c4)C3)ccc2c1", "note": "(centres unmarked)", "hERG current change (%, negative = inhibition) at 10uM": -8.6}, {"compound": "O=C(Nc1cccc2ncccc12)c1ccc(Cl)cc1", "hERG current change (%, negative = inhibition) at 10uM": 16.5}, {"compound": "C=CCn1c(SCC(=O)Nc2cccc(OC)c2)nnc1-c1cccnc1", "hERG current change (%, negative = inhibition) at 10uM": -44}, {"compound": "CC(=O)Oc1ccc(N(C(C)=O)S(=O)(=O)c2cccs2)c2ccccc12", "hERG current change (%, negative = inhibition) at 10uM": 0.225}, {"compound": "CC(=O)CSc1ncnc2sc3c(c12)CCC3", "hERG current change (%, negative = inhibition) at 10uM": -8.5}, {"compound": "O=C(/C=C/c1ccc(-c2ccccc2[N+](=O)[O-])o1)c1ccccc1", "hERG current change (%, negative = inhibition) at 10uM": 18.4}]}]}
